Here are results for 44 compounds from paper PMC4336329 (PLoS ONE, 2015).

Molecules are shown by their SMILES. Among all 310,000 compounds or so, about 2,200 (0.71%) showed an effect of 50% or more. Effects have a minus sign here. Some of the results follow.

For this assay, the target named is human ether-à-go-go-related gene (hERG) potassium channel (human, UniProt Q12809). Put plainly: primary screen, population patch clamp on CHO cells stably expressing hERG.
Sequence of human ether-à-go-go-related gene (hERG) potassium channel (Q12809 whole entry, looked up): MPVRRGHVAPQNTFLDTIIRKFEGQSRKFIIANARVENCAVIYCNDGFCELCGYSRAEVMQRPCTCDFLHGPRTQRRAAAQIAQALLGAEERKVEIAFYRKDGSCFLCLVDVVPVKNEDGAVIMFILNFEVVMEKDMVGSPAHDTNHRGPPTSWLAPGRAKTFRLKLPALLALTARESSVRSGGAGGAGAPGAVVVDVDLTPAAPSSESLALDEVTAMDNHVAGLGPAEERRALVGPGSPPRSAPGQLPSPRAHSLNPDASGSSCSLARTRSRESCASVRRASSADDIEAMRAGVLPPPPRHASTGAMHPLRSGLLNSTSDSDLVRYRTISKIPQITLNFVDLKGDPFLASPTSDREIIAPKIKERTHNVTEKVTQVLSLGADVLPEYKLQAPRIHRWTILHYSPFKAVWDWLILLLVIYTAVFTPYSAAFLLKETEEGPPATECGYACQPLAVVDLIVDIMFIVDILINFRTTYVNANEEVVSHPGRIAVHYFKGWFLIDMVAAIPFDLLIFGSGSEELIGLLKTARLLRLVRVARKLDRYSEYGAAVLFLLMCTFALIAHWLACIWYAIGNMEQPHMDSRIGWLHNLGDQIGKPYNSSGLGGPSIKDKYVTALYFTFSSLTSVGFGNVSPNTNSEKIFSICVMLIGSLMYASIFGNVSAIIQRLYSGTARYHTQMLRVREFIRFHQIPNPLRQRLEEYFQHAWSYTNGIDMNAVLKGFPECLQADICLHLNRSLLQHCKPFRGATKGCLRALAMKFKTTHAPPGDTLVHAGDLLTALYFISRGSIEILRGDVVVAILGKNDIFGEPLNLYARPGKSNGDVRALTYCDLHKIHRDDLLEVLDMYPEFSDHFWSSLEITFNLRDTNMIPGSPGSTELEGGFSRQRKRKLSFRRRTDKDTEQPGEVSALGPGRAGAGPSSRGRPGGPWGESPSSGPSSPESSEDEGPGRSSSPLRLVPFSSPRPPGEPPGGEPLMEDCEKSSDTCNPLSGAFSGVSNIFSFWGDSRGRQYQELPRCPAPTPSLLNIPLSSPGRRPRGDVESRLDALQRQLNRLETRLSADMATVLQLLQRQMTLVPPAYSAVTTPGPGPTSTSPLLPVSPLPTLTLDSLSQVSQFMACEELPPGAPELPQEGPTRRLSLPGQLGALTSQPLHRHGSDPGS
As for `Cc1nn(CC(=O)N(C)c2c(N)n(Cc3ccccc3)c(=O)[nH]c2=O)c(C)c1[N+](=O)[O-]`, the “hERG current change (%, negative = inhibition) at 1uM” value is recorded as -0.554%.
The same measure for `Cc1ccc(NC(=O)NC(=O)N(c2ccccc2)S(C)(=O)=O)cc1`: 7.37%.
The same measure for `Cc1cc(C)c(NC(=O)c2cc(S(=O)(=O)N3CCOCC3)ccc2F)c(C)c1`: 13.7%; for `CC(=O)c1ccc(-n2c(CCC(=O)O)ccc2-c2ccccc2)cc1`: 15.5%; for `Cc1ccc(CN2CCN(CC(=O)N3CCC4(CC3)OCCO4)C2=O)cc1`: 7.12%.
The value for `Cc1cccc(NC(=O)/C(C#N)=C/c2ccc(Cl)cc2)n1` was 24.6%; that for `O=C([O-])Cn1c(COc2ccc(Cl)cc2)nc2ccccc21.[K+]` was 4.24%; that for `Cc1cc(C)nc(-n2nc(C)cc2NC(=O)C(C)C)n1` was 8.37%.
As to `COc1ccc(Cl)cc1NC(=S)NCc1ccco1`, the “hERG current change (%, negative = inhibition) at 1uM” value was determined as 8.04%.
Take `O=C(COc1ccc(S(=O)(=O)NC2CCCCC2)cc1)N1CCN(c2cccc(Cl)c2)CC1`: the “hERG current change (%, negative = inhibition) at 1uM” value is -5.03%.
The value for `CON=C1CCN(c2ncc(C(F)(F)F)cc2Cl)CC1` was -4.47%.
The value for `CC(C)Oc1ccc(CCC(=O)NNC(=S)Nc2ccccc2)cc1` was 21.2%; that for `O=C(O)c1cn(Cc2ccccc2)nc1-c1cccnc1` was 14.7%.
The same measure for `CCOc1ccc(NC(=O)C2CCN(S(=O)(=O)c3ccc4c(c3)NC(=O)C(C)S4)CC2)cc1` (centres unmarked): 22.2%; for `O=C(CSc1ccccn1)N/N=C/c1cccc([N+](=O)[O-])c1`: -0.108%; for `CN(C)c1cc[n+](CC(=O)Nc2ccc(Oc3ccccc3)cc2)cc1.[Cl-]`: 5.8%.
On to `O=C(NCc1ccco1)/C(=C/c1ccc(Br)cc1)NC(=O)c1ccco1`, for which the “hERG current change (%, negative = inhibition) at 1uM” value was found to be 11.1%.
For the compound `COc1ccc(C)cc1NC(=O)c1cc2c(s1)CCC2`, the “hERG current change (%, negative = inhibition) at 1uM” value is recorded as 3.64%.
The same measure for `Cn1c(NC(=O)Cc2cccs2)cc(=O)n(C)c1=O`: 11.2%.
For the compound `COc1cc(CC(=O)NCc2cccs2)cc(OC)c1OC`, the “hERG current change (%, negative = inhibition) at 1uM” value is on record as 3.51%.
The same measure for `Cc1nn(C(C)C(=O)NCc2ccccc2)c(C)c1[N+](=O)[O-]` (centres unmarked): 12.9%; for `Cc1c(Cl)cccc1NC(=S)NCc1ccccc1Cl`: 15.7%.
The same measure for `CO/N=C/C(=N\Nc1ccc(OC)cc1)C(=O)c1ccc(F)cc1`: 10.9%.
The value for `COc1ccc(CCNc2oc(-c3ccccc3OC)nc2C#N)cc1` was -0.48%.
Turning to `Nc1ccc(Nc2nc(-c3cccs3)cs2)cc1`, the “hERG current change (%, negative = inhibition) at 1uM” value was determined as 7.74%.
The value for `O=C(O)C1C2C=CC(C2)C1C(=O)NCc1ccc(Cl)cc1Cl` (centres unmarked) was 15.9%.
The value for `Cc1ccc(-c2noc(C3CCCN(S(=O)(=O)c4ccc(S(=O)(=O)N(C)C)cc4)C3)n2)o1` (centres unmarked) was 8.03%; that for `COc1ccc(CC(=O)Nc2cccnc2)cc1` was 20.4%; that for `CS(=O)(=O)c1ccccc1-c1nnc(-c2ccc(Cl)cc2)o1` was 2.89%.
The value for `CCOc1ccc(S(=O)(=O)N2CCCCC2)cc1NC(=O)C1CSC2(C)CCC(=O)N12` (centres unmarked) was -7.44%; that for `COCCCNC(=O)c1ccc(OC)c(OC2CCN(C(C)C)CC2)c1` was 14.6%.
`O=C(COc1ccc2c(C(F)(F)F)cc(=O)oc2c1)NCc1cccs1`: the “hERG current change (%, negative = inhibition) at 1uM” value worked out at 15.7%.
The value for `CCC(Oc1ccccc1)C(=O)NCc1cccnc1` (centres unmarked) was -5.71%.
The value for `CC1(C)C2CCC1(C)C(OC(=O)CNc1ccccc1)C2` (centres unmarked) was 12.1%.
For the compound `CC(C)CCNC(=O)Nc1ccc2c(c1)N(C)C(=O)CS2`, the “hERG current change (%, negative = inhibition) at 1uM” value turned out to be 12%.
The value for `CSC1=NC(NCCCO)c2c(sc3c2CC(C)(C)OC3)N1` (centres unmarked) was 9.19%.
The same measure for `COc1cc2cc(C(c3nnnn3C3CCCC3)N3CCc4ccccc43)c(=O)[nH]c2cc1OC` (centres unmarked): 12.7%; for `Cc1cccc([C@@H](NC(=O)OC(C)(C)C)C(=O)OC(C)(C)C)c1`: 16.8%; for `COc1ccc(C(=O)ON=C2CCN(C)CC2)cc1.Cl`: 23.2%.
The value for `CCN(CC)S(=O)(=O)c1ccc(Cl)c(C(=O)Nc2nnc(C)s2)c1` was 7.53%; that for `CCN(CC(=O)Nc1ccc(NC(C)=O)cc1)C(=O)c1sc2nc3n(c(=O)c2c1C)CCC3` was 10.2%; that for `COc1ccc2ccccc2c1C1CC(=O)N2CN(C)CSC2=C1C#N` (centres unmarked) was 11.4%.
With `CCOc1ccc(NC(=S)N(CCN2CCOCC2)Cc2cc3cc4c(cc3[nH]c2=O)OCCO4)cc1`, the “hERG current change (%, negative = inhibition) at 1uM” value is reported as 2.44%.
The value for `O=C1CC(c2ccc(Cl)cc2)n2nc(N3C(=O)c4ccccc4C3=O)nc2N1` (centres unmarked) was -3.99%.
